Assay results published in paper PMC4336329 (PLoS ONE, 2015).
The campaign covered roughly 310,000 compounds. About 14,000 (4.5%) showed an effect of 50% or more. Effects have a minus sign here. The list shows a part of the results.

Biological target: human ether-à-go-go-related gene (hERG) potassium channel (human, UniProt Q12809)
Assay: primary screen, population patch clamp on CHO cells stably expressing hERG
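Also: peak tail current of the secondary pulse compared with the same well before compound.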

Sequence of human ether-à-go-go-related gene (hERG) potassium channel (Q12809 whole entry, looked up): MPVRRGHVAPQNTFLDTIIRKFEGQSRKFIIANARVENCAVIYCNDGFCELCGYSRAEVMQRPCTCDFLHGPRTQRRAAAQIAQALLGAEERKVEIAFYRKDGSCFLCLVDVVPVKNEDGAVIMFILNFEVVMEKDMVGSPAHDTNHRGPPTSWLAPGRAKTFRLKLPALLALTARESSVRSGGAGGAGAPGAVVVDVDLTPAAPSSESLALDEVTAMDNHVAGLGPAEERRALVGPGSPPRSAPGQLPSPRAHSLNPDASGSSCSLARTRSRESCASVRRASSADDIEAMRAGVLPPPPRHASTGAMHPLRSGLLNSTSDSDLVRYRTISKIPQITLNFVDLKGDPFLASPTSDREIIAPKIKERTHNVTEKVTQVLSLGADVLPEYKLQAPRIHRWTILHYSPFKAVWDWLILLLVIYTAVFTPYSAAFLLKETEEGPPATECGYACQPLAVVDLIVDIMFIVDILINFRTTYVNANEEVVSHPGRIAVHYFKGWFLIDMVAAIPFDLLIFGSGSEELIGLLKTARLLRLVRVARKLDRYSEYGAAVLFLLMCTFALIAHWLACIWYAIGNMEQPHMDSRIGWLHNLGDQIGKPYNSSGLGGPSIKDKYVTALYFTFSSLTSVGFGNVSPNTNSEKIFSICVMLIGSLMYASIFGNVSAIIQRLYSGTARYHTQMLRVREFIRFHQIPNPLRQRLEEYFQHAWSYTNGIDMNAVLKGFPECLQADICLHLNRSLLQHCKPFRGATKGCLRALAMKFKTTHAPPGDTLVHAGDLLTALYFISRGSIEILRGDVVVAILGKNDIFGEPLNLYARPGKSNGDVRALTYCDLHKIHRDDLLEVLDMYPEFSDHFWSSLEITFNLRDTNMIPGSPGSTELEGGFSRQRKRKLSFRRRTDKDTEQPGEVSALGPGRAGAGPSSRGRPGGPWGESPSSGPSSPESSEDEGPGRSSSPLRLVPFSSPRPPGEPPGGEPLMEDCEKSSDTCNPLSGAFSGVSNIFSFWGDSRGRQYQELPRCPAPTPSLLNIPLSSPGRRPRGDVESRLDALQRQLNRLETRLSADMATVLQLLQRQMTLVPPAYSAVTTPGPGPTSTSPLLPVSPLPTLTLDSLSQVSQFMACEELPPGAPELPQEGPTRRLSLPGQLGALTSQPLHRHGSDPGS

First: CCOc1cccc(CNc2ccc(O)cc2)c1OCc1ccccc1Cl
Second: COc1ccccc1CNCc1ccc(OC)c2ccccc12
The “hERG current change (%, negative = inhibition) at 10uM” value of the first is higher: 10.8% for the first, -37.8% for the second.

Going from CSc1ncc(Cl)c(C(=O)Nc2ccccc2C)n1 to COC(=O)c1ccccc1NC(=O)c1nc2nc(C)cc(C(F)F)n2n1, the “hERG current change (%, negative = inhibition) at 10uM” value falls from 6.48% to -5.65%.

First: COc1ccc(/C=C(\NC(=O)c2ccc(OC)cc2)C(=O)NC(CCSC)C(=O)O)cc1 (stereo not drawn)
Second: COC(=O)[C@H](CCSC)NC(=O)Nc1ccc(C)cc1
The “hERG current change (%, negative = inhibition) at 10uM” value of the first is lower: -11.7% for the first, 11.6% for the second.

Going from COc1ccccc1C(=O)Nc1ccc(S(=O)(=O)N2CCCCC2c2cccnc2)cc1 (stereo not drawn) to COc1ccccc1C(=O)NCC(=O)NC(C)c1ccc(-n2ccnc2)cc1 (stereo not drawn), the “hERG current change (%, negative = inhibition) at 10uM” value falls from -3.81% to -66.4%.

Compared with Cc1cc(N2C(=O)CC(Cc3ccc(Cl)cc3)C2=O)no1 (stereo not drawn), Cc1cc(NC(=O)CSc2ccc3nnc(-c4ccc(Cl)cc4)n3n2)no1 is lower in “hERG current change (%, negative = inhibition) at 10uM” value: -0.604% for the first, -3.45% for the second.

First: Cc1nc(C(F)(F)F)c(C(=O)O)cc1-c1nc(-c2ccccc2)cs1
Second: Cc1cccc(C(=O)Nc2oc(-c3ccccc3)cc2C#N)c1
The “hERG current change (%, negative = inhibition) at 10uM” value of the first is higher: 41.7% for the first, 15.3% for the second.

Compared with Cc1nc(SCN2C(=O)c3ccccc3C2=O)n[nH]1, CCN(CC)C(=O)c1ccc2c(c1[N+](=O)[O-])C(=O)c1ccccc1C2=O is lower in “hERG current change (%, negative = inhibition) at 10uM” value: 15.2% for the first, 6.69% for the second.

Compared with CC(=O)N(c1ccc2oc(=O)sc2c1)S(=O)(=O)c1cccc2cccnc12, CCN(C(=O)Cn1c(=O)oc2ccccc21)c1cccc(C)c1 is higher in “hERG current change (%, negative = inhibition) at 10uM” value: 5.98% for the first, 6.38% for the second.

First: O=C(Cc1c(F)cccc1Cl)N(Cc1ccccc1)c1ccccn1
Second: CCN(Cc1nc2cc(Cl)ccc2c(=O)[nH]1)C(=O)COc1ccccc1Cc1ccccc1
The “hERG current change (%, negative = inhibition) at 10uM” value of the first is higher: -7.4% for the first, -20.7% for the second.

Going from COc1ccc(C(=O)Cn2c(=O)c(CCC(=O)O)nn3c4ccccc4nc23)cc1OC to COCCn1c(=O)[nH]c2cc(C(=O)Nc3ccc(OC)c(Cl)c3)ccc2c1=O, the “hERG current change (%, negative = inhibition) at 10uM” value rises from 5.71% to 22.7%.

Compared with Cc1sc2ncnc(SCC(=O)N3CCC(c4noc5ccc(F)cc45)CC3)c2c1C, Cc1cc(=O)[nH]c(SCC(=O)N2CCC(Cc3ccccc3)CC2)n1 is lower in “hERG current change (%, negative = inhibition) at 10uM” value: 6.82% for the first, -11.7% for the second.

First: Fc1ccc(Nc2nnc(C(F)(F)F)s2)cc1
Second: Cc1ccc(-n2c(CNc3ccc(F)cc3)nnc2SCC(=O)N2CCCC2)cc1
The “hERG current change (%, negative = inhibition) at 10uM” value of the first is higher: -0.326% for the first, -31.7% for the second.

First: COC(=O)c1cc(-c2cccc([N+](=O)[O-])c2)c2c(=O)n(C)c(=O)n(C)c2n1
Second: CC(Oc1cccc(Cl)c1)C(=O)Nc1cc(=O)n(C)c(=O)n1C (stereo not drawn)
The “hERG current change (%, negative = inhibition) at 10uM” value of the first is higher: 17.9% for the first, -16.8% for the second.

First: COc1cc(NC(C)C(=O)N2CC(C)OC(C)C2)cc(OC)c1 (stereo not drawn)
Second: COc1ccc(NC(=O)COc2ccc3c(c2)OCO3)cc1
The “hERG current change (%, negative = inhibition) at 10uM” value of the first is lower: 5.18% for the first, 6.65% for the second.

Compared with COc1ccc(CNC(=O)c2cnc3n(c2=O)CCS3)cc1, O=C(NCc1ccccc1)c1ccc(OCC2CCCO2)cc1 (stereo not drawn) is higher in “hERG current change (%, negative = inhibition) at 10uM” value: -11.2% for the first, 8.41% for the second.

First: CSCCC(Nc1ncnc2ccc(Br)cc12)C(=O)O.Cl (stereo not drawn)
Second: CC(=O)Nc1ccc(NC(=O)COc2c(C)cc(Br)cc2C)cc1
The “hERG current change (%, negative = inhibition) at 10uM” value of the first is higher: 16.3% for the first, -0.246% for the second.

Compared with Cc1ccccc1C(=O)NC1CCN(CC(=O)NC2CCCCC2)CC1, CC(=O)NC(CC(=O)Nc1cccc(S(=O)(=O)N2CCCCC2)c1)c1ccccc1 (stereo not drawn) is higher in “hERG current change (%, negative = inhibition) at 10uM” value: -5.04% for the first, -1.76% for the second.

First: Cc1cc(-n2c(C)cc(C(=O)CSc3nc4ccccc4c(=O)n3Cc3ccco3)c2C)no1
Second: CCOC(=O)c1cc2c(c(CSc3nc4ccccc4c(=O)n3Cc3ccco3)c1)OCOC2
The “hERG current change (%, negative = inhibition) at 10uM” value of the first is higher: 16.4% for the first, 11.1% for the second.

Compared with CCOCCCn1c(=NC(=O)c2ccco2)c(C(=O)OCC)cc2c(=O)n3cccc(C)c3nc21, COCCCn1c(=O)c2ccccc2n(Cc2ccccc2C)c1=O is higher in “hERG current change (%, negative = inhibition) at 10uM” value: -74% for the first, -13.6% for the second.

Compared with COC(=O)c1ccc(C2C(C(=O)c3cc4ccccc4o3)=C(O)C(=O)N2c2cc(C)on2)cc1 (stereo not drawn), COc1ccc(C2C(C(=O)Nc3ccccc3OC)=C(C)Nc3ncnn32)cc1 (stereo not drawn) is lower in “hERG current change (%, negative = inhibition) at 10uM” value: 20.7% for the first, -14.6% for the second.

Compared with COCCCN1C(=O)C(=O)/C(=C(/O)c2ccc(C)cc2)C1/C=C/c1ccccc1 (stereo not drawn), Cc1ccc(S(=O)(=O)NC2(C(F)(F)F)NC(=O)N(CCc3ccccc3)C2=O)cc1 (stereo not drawn) is higher in “hERG current change (%, negative = inhibition) at 10uM” value: -2.75% for the first, 14% for the second.

First: COc1cc(OC)c(C2CC(=O)N3CN(c4ccccc4C)CSC3=C2C#N)cc1OC (stereo not drawn)
Second: COc1ccccc1CNC(=O)c1ccc2c(=O)n(CC3CCCO3)c(=S)[nH]c2c1 (stereo not drawn)
The “hERG current change (%, negative = inhibition) at 10uM” value of the first is lower: 1.28% for the first, 3.61% for the second.

Going from CN(C)CCCN(C(=O)c1cccs1)c1nc2cc3c(cc2s1)OCO3.Cl to CCOc1ccc(-c2nnn(CC(=O)NCc3ccc4c(c3)OCO4)n2)cc1, the “hERG current change (%, negative = inhibition) at 10uM” value rises from -56.8% to -0.864%.

First: CCCCn1cnc2c1c(=O)[nH]c(=O)n2CCCC
Second: Cc1cc(C)c(C(=O)/C=C/c2cccs2)c(=O)[nH]1
The “hERG current change (%, negative = inhibition) at 10uM” value of the first is lower: -7.83% for the first, 20% for the second.

Compared with CCCN1C2CCCC1CC(NC(=O)c1ccc(C(C)(C)C)cc1)C2 (stereo not drawn), CC(C)(C)c1ccc(/C=N/NC(=O)C2CCCC2)cc1 is higher in “hERG current change (%, negative = inhibition) at 10uM” value: -37.1% for the first, -12.3% for the second.

Compared with CC(C)Nc1ccc(Nc2ccccc2)cc1, Cn1c(CNc2ccc(Br)cc2)nc2ccccc21 is lower in “hERG current change (%, negative = inhibition) at 10uM” value: -0.32% for the first, -17.5% for the second.

First: COc1ccc(-c2csc(NC(=S)NC(=O)c3ccco3)n2)cc1Br
Second: COc1ccc(Cl)cc1NC(=O)C1CSC(c2ccncc2)=N1 (stereo not drawn)
The “hERG current change (%, negative = inhibition) at 10uM” value of the first is higher: 38.2% for the first, -4.19% for the second.

Compared with O=C1C(c2ccc(F)cc2)N(Cc2ccc3c(c2)OCO3)C(=O)CN1C1CCCCC1 (stereo not drawn), COc1ccc(N2CCN(C3CCCCC3NS(=O)(=O)c3ccccc3)CC2)cc1 (stereo not drawn) is higher in “hERG current change (%, negative = inhibition) at 10uM” value: -37.4% for the first, -2.38% for the second.

Compared with Cc1nc2ccc(S(=O)(=O)NCC(=O)NCCc3ccc(Cl)cc3)cc2s1, O=C(Cc1ccc(Cl)cc1)Nc1ccc(Cl)cn1 is lower in “hERG current change (%, negative = inhibition) at 10uM” value: 28.3% for the first, -6.38% for the second.

First: COc1cc([N+](=O)[O-])ccc1NC(=O)C[n+]1ccccc1.[Cl-]
Second: COc1ccc(C)cc1NC(=O)CNC(C)C(=O)Nc1ccc(C(C)=O)cc1 (stereo not drawn)
The “hERG current change (%, negative = inhibition) at 10uM” value of the first is higher: 3.05% for the first, -10.3% for the second.

Compared with Cc1ccc(S(=O)(=O)/N=C(\CCl)N2CCOCC2)cc1, Cc1ccc(NC(=O)Nc2ccccc2F)cc1S(=O)(=O)N1CCOCC1 is lower in “hERG current change (%, negative = inhibition) at 10uM” value: 18.3% for the first, 5.25% for the second.

First: CCOC(=O)c1ccc(NC(=O)c2c(O)[nH]c(=O)[nH]c2=O)cc1
Second: CCOC(=O)CC(=O)Nc1nc2ccccc2s1
The “hERG current change (%, negative = inhibition) at 10uM” value of the first is higher: 12.7% for the first, -8.27% for the second.

Going from CCN(CC)C(=O)c1ccc(-c2nnc(Nc3ccc(C(=O)NC)cc3)c3ccccc23)cc1 to CC(C)c1c(C(=O)N/N=C/c2cccc3ccccc23)nnn1-c1nonc1N, the “hERG current change (%, negative = inhibition) at 10uM” value rises from 4.57% to 10.7%.

First: Cc1ccc(Cl)cc1N1CCN(S(=O)(=O)c2ccc3[nH]c(=O)c(=O)[nH]c3c2)CC1
Second: CN1CCN(S(=O)(=O)c2ccc3c4c(cccc24)C(=O)N3)CC1
The “hERG current change (%, negative = inhibition) at 10uM” value of the first is higher: 18.5% for the first, -0.59% for the second.

Going from CCOC(=O)N1CCN(C(=O)CN(Cc2ccccc2)S(=O)(=O)c2ccc(OC)c(C)c2)CC1 to O=C(O)c1cccc(S(=O)(=O)Nc2ccccc2Cl)c1, the “hERG current change (%, negative = inhibition) at 10uM” value rises from -24.5% to -2.26%.

First: CN1CCN(c2nc3ccccn3c(=O)c2C=C2C(=O)N(C)C(=O)N(C)C2=O)CC1
Second: CN1CCN(CCCNC(=O)c2cc3c(=O)n(C)c4ccccc4c3s2)CC1
The “hERG current change (%, negative = inhibition) at 10uM” value of the first is higher: 10.5% for the first, 1.89% for the second.

Compared with Cc1cc(C)cc(-n2nnn(C3C/C(=N/NC(N)=S)C4OCC3O4)c2=S)c1 (stereo not drawn), Cc1cc(C)cc(C(=O)OCC(=O)N2CCCCCC2)c1 is lower in “hERG current change (%, negative = inhibition) at 10uM” value: 12.3% for the first, 7.01% for the second.

First: O=C(Oc1cccc2c(OC(=O)N3CCOCC3)cccc12)N1CCOCC1
Second: O=S(=O)(c1ccc(-c2csc(-c3cccnc3)n2)cc1)N1CCOCC1
The “hERG current change (%, negative = inhibition) at 10uM” value of the first is higher: 12.5% for the first, -34% for the second.

Going from COc1ccc(Oc2cc(F)nc(N)n2)cc1 to COC(=O)c1ccc(COc2ccc3c4c(c(=O)oc3c2)CCC4)o1, the “hERG current change (%, negative = inhibition) at 10uM” value rises from -13.8% to 16.9%.

Compared with COC(=O)C(O)(CC(=O)Nc1ccc(Cl)cc1Cl)C(F)(F)F (stereo not drawn), COC(=O)C1=CN(C)C=C(C(=O)OC)C1c1ccc(Cl)cc1Cl is higher in “hERG current change (%, negative = inhibition) at 10uM” value: 8.05% for the first, 15.8% for the second.

Compared with O=C(NCCO)C1(c2ccccc2)CCCC1, O=C(Nc1ccc2nc3n(c(=O)c2c1)CCCC3)c1cccc(F)c1 is lower in “hERG current change (%, negative = inhibition) at 10uM” value: 20.1% for the first, -43.9% for the second.

Compared with COC(=O)C1=C(C(=O)OC)[C@@H]2N(C)c3ccccc3[C@@]23C[C@@H](CO)N(C(=O)C2CCC2)C3=N1, CN(C)c1ccc(C2C3CCCc4ccccc4C3=NN2C)cc1 (stereo not drawn) is lower in “hERG current change (%, negative = inhibition) at 10uM” value: -1.38% for the first, -27.5% for the second.

First: CCC1=C/C(=C/N(C)c2ccccc2)C(=O)S1
Second: C=CCn1c(O)c(C=Nc2ccccc2)sc1=S
The “hERG current change (%, negative = inhibition) at 10uM” value of the first is lower: -9.69% for the first, 20.6% for the second.

For CCOC(=O)CNC(=S)N(CCCN1CCCCCC1)Cc1cccs1, the “hERG current change (%, negative = inhibition) at 10uM” value was -65.8%.
